According to PubChem BioAssay AID2546 (National Center for Advancing Translational Sciences (NCATS), 2010):
The campaign covered roughly 310,000 compounds. About 11,000 (3.5%) were called active. This list was built around the results that the source calls inconclusive (neither active nor inactive); the mix of calls is not that of the screen. Calls come from the whole dose curve; as a rule, active = well fitted inhibition curve with a large enough effect; inconclusive = small, poorly fitted or top-dose-only effect, or effect the other way; inactive = flat fitted curve, though single readings scatter. Potencies of inconclusive entries are left out as doubtful fits.

Assay: VP16 counterscreen qHTS for inhibitors of ROR gamma transcriptional activity;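 note: Gal4-VP16 expression switched on by copper sulfate through the metallothionein promoter; nearly all actives have a fitted effect of over 50% in size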
Settings: Drosophila S2 Gal4-VP16 UAS-luciferase, luminescence, 20 h; series mostly up to 53.6 µM
Potency is the fitted concentration of half-maximal effect; tags give direction and shape of the fitted curve.

| Structure (SMILES) | Potency |
| --- | --- |
| Cc1ccc(-n2c(C)cc(/C=N/NC(=O)c3ccncc3)c2C)cc1 | inconclusive [inhibitor, single point] |
| COc1cccc(/C=C/C(=O)Nc2ccc3nc4n(c(=O)c3c2)CCCC4)c1OC | inconclusive [inhibitor, partial curve] |
| CCCCCC(=O)NC(=S)NNC(=O)CC | inactive |
| C/C1=C\[C@@H](O)C(C(C)C)C(OC(=O)c2ccc(O)cc2)C/C(C)=C/CC1 (stereo not given in full) | inconclusive [inhibitor, single point] |
| O=C(CNC(=O)c1ccccc1Br)N/N=C/c1ccccc1O | inconclusive [inhibitor, single point] |
| Cc1cc(S(=O)(=O)NCc2ccccn2)c(Cl)cc1Cl | active: 5.62 µM |
| O=C(Nn1c(O)c(C=C2N=c3ccccc3=N2)sc1=S)c1cccc(Cl)c1 | inconclusive [inhibitor, single point] |
| COc1ccc(C(=O)N/C(=C/c2cccs2)c2nc3ccccc3[nH]2)cc1OC | inconclusive [activator, single point] |
| O=[N+]([O-])c1ccc(-n2cnc3ccccc32)c([N+](=O)[O-])c1 | inconclusive [inhibitor, single point] |
| Cc1cccc(N2CCN(C(=O)C(Cc3ccccc3)n3cccc3)CC2)c1C (stereo not given) | inconclusive [inhibitor, single point] |
| O=C(Nc1nnc(-c2ccc(Cl)cc2)o1)C1=COCCO1 | active: 1.78 µM |
| COC(=O)c1cc(=O)n(Cc2ccc(OC)c(OC)c2)c(=Nc2ccc(F)cc2)s1 | inconclusive [inhibitor, single point] |
| CC1(C)CC(=O)C2=C(C1)OC1=C(C(=O)CC(C)(C)C1)C2c1ccc(O)cc1O | active: 6.31 µM |
| CCN(CC)c1ccc(/C=N/Nc2nc(C)cc(C)n2)cc1 | active: 12.6 µM |
| COc1ccc(O)c(C(=O)CC(=O)c2ccccc2)c1 | active: 12.6 µM |
| O=c1c2c(-c3ccccc3)csc2nc2c3ccccc3c(NCCN3CCOCC3)nn12 | active: 3.16 µM |
| CC(C)(C)C(=O)/C=c1\[nH]c(=O)/c(=C\c2ccc(C#N)cc2)s1 | inconclusive [inhibitor, single point] |
| Cc1[nH]n2c(=O)c3c(nc2c1-c1ccc(Cl)cc1)CCC3 | inconclusive [inhibitor, single point] |
| Cc1csc2ncc(C(=O)Nc3ccccc3F)c(=O)n12 | inconclusive [activator, partial curve, poor fit] |
| COCCNc1oc(/C=C/c2ccc(F)cc2)nc1S(=O)(=O)c1ccccc1 | inactive |
| Cc1ccc2c(Cn3cc(C(F)(F)F)cc(Cl)c3=O)cc(=O)oc2c1 | inactive |
| CCCCn1c(/N=C/c2c[nH]c3ccccc23)nc2ccccc21 | inconclusive [inhibitor, single point] |
| CCC(CC)N=C1NS(=O)(=O)c2cc([N+](=O)[O-])ccc21 | inconclusive [inhibitor, single point] |
| Cc1ccoc1C(=O)Nc1cccc2ccccc12 | inconclusive [activator, partial curve, poor fit] |
| O=c1c2ccccc2nnn1CSc1nc2ccccc2c(=O)n1Cc1ccco1 | inconclusive [activator, single point] |

| Structure (SMILES) | Potency |
| --- | --- |
| COC(=O)c1ccccc1NC(=S)N1CCN(c2ccccn2)CC1 | inactive |
| CC(/C=N/NC(=O)c1nn(C)c(C)c1Br)=C\c1ccccc1 | inconclusive [inhibitor, partial curve] |
| CC(C)n1c(CN2CCN(C(=O)c3ccco3)CC2)nc2c1c(=O)n(C)c(=O)n2C | inconclusive [inhibitor, single point] |
| O=C(COc1ccc(Br)cc1)Nc1ccncc1 | inconclusive [inhibitor, single point] |
| N#Cc1c(-c2ccc(Cl)cc2)c2c([nH]c1=S)CCCC2 | inconclusive [inhibitor, single point] |
| O=C(Nc1cccc(Cl)c1)Nc1nnc(CC2=CCCCC2)s1 | inconclusive [inhibitor, single point] |
| O=C(CN1CCN(C(=O)c2ccco2)CC1)Nc1c2c(nc3c1CCC3)CCCC2 | inactive |
| CC1CCCC(C)N1C(=O)c1cc(-c2cccs2)on1 (stereo not given) | inconclusive [activator, full curve] |
| Cc1ccc(S(=O)(=O)N2CCN(Cc3cc(C(C)(C)C)ccc3O)CC2)cc1 | inconclusive [inhibitor, single point] |
| CS(=O)(=O)c1ccc(NC(=O)c2cccc(S(=O)(=O)N3CCN(Cc4ccccc4)CC3)c2)cc1 | inconclusive [inhibitor, single point] |
| Cc1cc(C(=O)NCCC2=CCCCC2)c(C)o1 | inconclusive [inhibitor, single point] |
| OC[C@@H]1[C@@H](c2ccc(F)cc2)C(c2ccc(F)cc2)=NN1c1ccccc1 | inactive |
| Cc1c(C(=O)OCC(=O)NCC2CCCO2)cccc1[N+](=O)[O-] (stereo not given) | inactive |
| O=C(N/N=C/c1ccccn1)C12CC3CC(CC(C3)C1)C2 | active: 20 µM |
| Cc1cccc(NC(=O)CNc2cc(C)ccc2C)c1 | inconclusive [activator, single point] |
| Nc1nc(CCl)nc(Nc2ccc3ccccc3c2)n1 | inconclusive [inhibitor, single point] |
| O=C(CCl)N(c1ccccc1)C1CCS(=O)(=O)C1 (stereo not given) | inconclusive [inhibitor, single point] |
| O=C(Nc1ccc(Sc2ccc(Br)cc2)cc1)c1ccco1 | active: 2.82 µM |
| NS(=O)(=O)c1cccc(NS(=O)(=O)c2ccc3ccccc3c2)c1 | inactive |
| O=C(CCC1N=C2c3ccccc3N=C(SCc3ccccc3Cl)N2C1=O)NCc1ccco1 (stereo not given) | inactive |
| COc1cc(CN2CCCCCC2)cc([N+](=O)[O-])c1O | inactive |
| COc1ccc2sc3ccccc3c(=O)c2c1OC | inconclusive [inhibitor, single point] |
| CC(C)CC(=O)NC(=S)NNC(=O)c1cccc([N+](=O)[O-])c1 | inconclusive [inhibitor, single point] |
| CCc1nnc(N/N=C\c2ccc(OC(C)=O)c(OC)c2)n1N | inconclusive [inhibitor, single point] |
| N/C(=N\NC(=O)c1cccs1)c1cc2ccccc2oc1=O | active: 7.08 µM |

| Structure (SMILES) | Potency |
| --- | --- |
| COc1cccc(/C=N/Nc2ncnc3scc(-c4ccccc4)c23)c1O | active: 12.6 µM |
| CCOC(=O)c1[nH]c2ccc(OC)cc2c1NC(=O)CN1CCC2(CC1)OCCO2 | inactive |
| CCN1CN(Cc2ccccc2)CNC1=S | inconclusive [inhibitor, single point] |
| CCn1nc(C)cc1C(=O)N1CCCC(C(=O)c2ccccc2SC)C1 (stereo not given) | inactive |
| CCOC(=O)C1=C(C)N(C)C(=S)NC1c1ccc(Cl)cc1Cl (stereo not given) | active: 7.94 µM |
| Cc1ccccc1NC(=O)c1c(C)cc(=O)oc1C | inactive |
| Cn1ccnc1C(O)c1cc(C(C)(C)C)c(O)c(C(C)(C)C)c1 (stereo not given) | inconclusive [inhibitor, single point] |
| COc1ccc(NC(=O)CN2CCCC(C)C2)c([N+](=O)[O-])c1 (stereo not given) | inconclusive [activator, single point] |
| Clc1ccc(/C=N/N2CCN(Cc3ccccc3Cl)CC2)cc1 | inactive |
| COc1ccc(Nc2sc(C(=O)Nc3cccc(Cl)c3)c(N)c2C(=O)Nc2ccccc2OC)cc1 | inconclusive [inhibitor, single point] |
| O=C(O)c1cccc(CSc2nnc(-c3ccc(Cl)cc3)o2)c1 | active: 0.794 µM |
| COc1ccc(-c2cc(-c3ccccc3O)[nH]n2)cc1 | active: 15.8 µM |
| Cc1ccc(N2C(=O)C(Cl)=C(Nc3c(C)n(C)n(-c4ccccc4)c3=O)C2=O)cc1 | inconclusive [activator, single point] |
| Cc1ccc(NC(=O)CNCc2cccs2)c(Br)c1 | inconclusive [activator, single point] |
| C=CC[n+]1c(-c2ccc(OCC)cc2)csc1NNC(=O)Nc1ccccc1 | inconclusive [inhibitor, single point] |
| CC1CCN(S(=O)(=O)c2ccc(C(=O)Nc3nnc(C4=COCCO4)o3)cc2)CC1 | active: 1 µM |
| COc1ccc2cc(/C(C)=N/NC(=O)C3CC3)ccc2c1 | inactive |
| CCOC(=O)c1c(-c2ccc(OCC)cc2)csc1NC(=O)CCN1C(=O)c2ccccc2C1=O | inactive |
| CC(C)(C)c1csc(NNC(=O)c2ccc(Br)cc2)n1 | active: 2.82 µM |
| CCOc1ccc(Br)cc1/C(C)=N\NC1=NCCN1 | active: 7.94 µM |
| CCOC(=O)C1Oc2ccccc2C(c2ccccc2)=C1C(C)=O (stereo not given) | inactive |
| Cn1cc(CNC(=O)c2cc(-c3ccccc3)nc3ccc(Br)cc23)cn1 | inconclusive [inhibitor, single point] |
| CCN(CC)C(=O)c1sc(NC(=O)c2cccc([N+](=O)[O-])c2)c(C#N)c1C | inconclusive [activator, single point] |
| CCOC(=O)CC(NC(=O)c1cccc2c1C(=O)N(Cc1cccnc1)C2)c1ccc(OCC)c(OC)c1 (stereo not given) | inactive |
| COc1ccc(NS(=O)(=O)c2ccc(Oc3c(C#N)cccc3C#N)cc2)cc1 | active: 3.98 µM |
